The target in experiment [1] is T1, NHERF1 (UniProt O14745 1-358).
T1 sequence (looked up): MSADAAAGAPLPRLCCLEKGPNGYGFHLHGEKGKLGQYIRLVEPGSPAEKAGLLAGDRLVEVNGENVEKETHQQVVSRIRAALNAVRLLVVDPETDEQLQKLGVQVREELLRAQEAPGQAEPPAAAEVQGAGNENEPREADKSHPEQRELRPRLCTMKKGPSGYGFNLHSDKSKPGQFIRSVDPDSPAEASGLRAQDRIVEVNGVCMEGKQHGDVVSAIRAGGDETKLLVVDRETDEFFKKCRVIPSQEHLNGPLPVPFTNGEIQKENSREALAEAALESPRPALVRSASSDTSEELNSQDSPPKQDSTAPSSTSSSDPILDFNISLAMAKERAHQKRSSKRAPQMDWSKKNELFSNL
Description: ITC. (Isothermal titration calorimetry measures the heat released or taken up as one component is titrated into another.)

Experiment [2] deals with T1, NHERF1. As to the kind of experiment: SPR. A general note: In SPR one partner is held on a chip, and binding of the other changes the refractive index at the surface.

Usually Kd stands for the constant that tells how readily two partners part at equilibrium. A higher Kd goes with a looser complex.

B1: FERM domain of Ezrin (domain or fragment)
chain: not shown
B1: the dissociation constant Kd amounted to 17.8 ± 6.8 nM in experiment [1] and 25.8 ± 1.8 nM in experiment [2].

(Values after paper PMC4407695 (Journal of molecular biology, 2014).)
